First the molecules themselves.
B1: CPEB3 Ribozyme (parent)
chain: UAACAGGGGGCCACAGCAGAAGCGUUCACGUCGCAGCCCCUGUCAGAUUCUGGUGAAUCUGCGAAUUCUGCUGUAUAUCUC

The source gives no read counts; variants with many changes may rest on few reads.

Consider 167 variants from the RNAGym collection of RNA variant scans (doi:10.1093/nar/gkz1192).

This series covers variants of B1. Description: self-cleavage, relative activity (ratio to wild type); higher = more cleavage; in vitro, sequencing. Summed up:
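After error-prone PCR and barcoding, CPEB3 ribozyme mutant libraries were transcribed with T7 RNA polymerase at 37°C for 5 hours, then given 15 min with DNase I before an EDTA stop, and they cleaved during both steps. Reverse transcription with template switching preceded Illumina sequencing. Relative activity divides a variant's cleaved/total read fraction by the unmutated ribozyme's. At least 5 reads were required per variant, and three batches were averaged.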
For the variant U25C U43C G52A A64G, the self-cleavage stood at 0.14.
Take U25G C27U C40U A56G U60A U80C: the self-cleavage is 0.21.
On to U25C A56G U66C C71A U76C U80C, for which the self-cleavage turned out to be 0.12.
Turning to U25C U26C U31A A35G U48C G70A G73U, the self-cleavage came out at 0.04.
The same measure for U25C U31C G36A U51C U66A: 0.08; for U25C A35U U69A: 0.15; for U25C U41A A56U U78C: 0.17.
For the variant U25C A35U U41C A57G U69A, the self-cleavage was found to be 0.08.
For the variant U25C C32A C38U U66A U78A, the self-cleavage came out at 0.12.
As to U25C A56C C59A, the self-cleavage was 0.13.
With U26A U31C U51C, the self-cleavage came out at 0.73.
For the variant U25C U51G U69C U80A, the self-cleavage came out at 0.35.
For U25C U48C U58C A64G, the self-cleavage is 0.06.
The result for U25C U41C U54C C62U reads 0.34.
The same measure for U25C U60G A65G U66A: 0.11; for U25C A45U A56G: 0.07.
On to U25C U26C A35G U48C C62A, for which the self-cleavage came out at 0.2.
U25C C27U U51A A57U U80A: the self-cleavage came to 0.04.
U25C U26C U60A U76A C79A: the self-cleavage came to 0.04.
The same measure for U26A U31C C40A U78C: 0.14; for U25C U26A U51A: 0.25.
As for U25C G33A A35G U54C, the self-cleavage was found to be 0.06.
U25C U41C U80C: the self-cleavage is 0.34.
Regarding U25C U31C A47G A64G, the self-cleavage turned out to be 0.07.
U25C G33U A45G A47G A64U: the self-cleavage was 0.13.
As to U25C U41A A56G A64G U69C, the self-cleavage was 0.06.
On to U26A U43A A47G U72C U80C, for which the self-cleavage stood at 0.1.
For the variant U25C A35G U58A C62U, the self-cleavage is 0.13.
U25C C39G U58C C79U: the self-cleavage came to 0.05.
For U25C C40U A45U U51C A65G, the self-cleavage turned out to be 0.09.
U25C U31A U41C U72A: the self-cleavage worked out at 0.06.
The result for U25G U69A U80C reads 0.1.
For U25C U41C U54A A57G, the self-cleavage stood at 0.41.
For U25C U72C U78C, the self-cleavage stood at 0.09.
As for U25C G46A G63U G70U, the self-cleavage was found to be 0.18.
Regarding U26A A56G A65G, the self-cleavage stood at 0.18.
The same measure for U26A U41G A64U U76C: 0.14; for U26C A35G U49C U80C: 1.03; for U25C U43C A56G U78C: 0.28.
Turning to U26C A28G U43A U49C, the self-cleavage amounted to 0.13.
With U25G A28U G52A U69C U72G, the self-cleavage was 0.07.
The result for U25C C59U U80C reads 0.37; that for U26C A28C A35C A56G A64G U78G U80A, 0.02.
U26C A35C G61U: the self-cleavage is 0.09.
U26A A35U U49C U51C: the self-cleavage is 0.06.
Regarding U26A C40A C62A U72A, the self-cleavage was 0.08.
For the variant U25C A47C U74C U78C, the self-cleavage amounted to 0.15.
In the case of U25G A28G U74G A75U, the self-cleavage is 0.57.
On to U26A U31A A56G, for which the self-cleavage was 0.28.
As for U25C C29U A35U A47U A65G U74C, the self-cleavage worked out at 0.07.
The result for U26A G36A U69A reads 0.14.
Take U25C A35G U60C: the self-cleavage is 0.06.
Regarding U26A A35G U80A, the self-cleavage stood at 1.27.
On to U25C A35C C39A A45G, for which the self-cleavage is 0.17.
With U25C C39U U72C U80C, the self-cleavage is 0.1.
The result for U25C C38U U49C U60C reads 0.07.
The same measure for U25C A45U G52C U60A: 0.22.
The result for U25C A45G U69A U80C reads 0.18; that for U25C A64G U76A, 0.13; that for U25C U43C U74C, 0.16.
In the case of U26A U54A U60G, the self-cleavage came to 0.53.
Regarding U25G G30A U60C U76A, the self-cleavage was found to be 0.08.
As for U26C A35G U54C A64U, the self-cleavage turned out to be 0.28.
With U26C A28G U51C U60A, the self-cleavage came to 0.12.
The result for U25C A65G U74C U80C reads 0.31; that for U25C C38U A56G, 0.11; that for U25C C32A A35U U49C U80A, 0.14.
With U25C A35G U72C, the self-cleavage worked out at 0.35.
Turning to U25C A47G U51A U60C, the self-cleavage stood at 0.12.
Take U25G A64U U67C U72C: the self-cleavage stood at 0.24.
With U25C C27U U49A A64G, the self-cleavage is 0.2.
With U26A A28G G33C U48C U60C A64U, the self-cleavage was 0.07.
The result for U25C U31C A35G A57U reads 0.13; that for U26C A35G U54C A75G, 1.03.
For U26A C37G U48C U80C, the self-cleavage was 0.3.
The same measure for U26A U51G U54G A56U A65G U67G U72A: 0.21; for U25C U26A A35U A56G U74A: 0.42.
Consider U25C A45U U78C, for which the self-cleavage is 0.16.
On to U25C U58C A64G, for which the self-cleavage was 0.15.
Turning to U26A C29A C37U A45U U49A A65U U67C, the self-cleavage amounted to 0.06.
U25C U43C U49A A65G U67G: the self-cleavage was determined as 0.04.
For the variant U25C U74C U78C, the self-cleavage amounted to 0.46.
In the case of U25C U26A A45G U49C U51A U60C U69C, the self-cleavage turned out to be 0.04.
The same measure for U26A G52A U69A: 0.38.
The result for U26C A28G A35G C59A U80G reads 0.09; that for U25C U51C U72C, 0.15.
The same measure for U26A C34G U41C: 0.14; for U25G C71U U80C: 0.36; for U26A G30C U60C U69C U78A: 0.13.
On to U26A U41C A45G, for which the self-cleavage came out at 0.47.
On to U26A U51G U54C, for which the self-cleavage was 0.88.
For the variant U25C A35U U66C, the self-cleavage amounted to 0.11.
With U25C U67C C79A, the self-cleavage is 0.13.
Turning to U25C G33C A35G U72C, the self-cleavage worked out at 0.2.
The same measure for U26A G33C U41C U72C: 0.16.
As for U25C U43C C59G, the self-cleavage stood at 0.2.
Regarding U25C A28U U54A, the self-cleavage was found to be 0.1.
The result for U25C C34U A47G U67C reads 0.1; that for U25C U43C G55U U69A, 0.08.
U25C A35G U41C: the self-cleavage is 0.21.
Consider U26A A64G U80C, for which the self-cleavage turned out to be 0.72.
With U25C A28U U78A, the self-cleavage was 0.19.
For U25C A35U U41A U78C, the self-cleavage is 0.16.
As for U25C A35G U66C, the self-cleavage worked out at 0.14.
The result for U25C A57G U67C reads 0.38.
On to U26A C40U U51A U69G U72G, for which the self-cleavage turned out to be 0.12.
The same measure for U25C U26C G33A: 0.23; for U25C A45G A64G: 0.
In the case of U26A C59U U74G, the self-cleavage is 0.59.
With U25C U41C U48C, the self-cleavage was 0.3.
As for U25C A45G U60C U78C, the self-cleavage was found to be 0.35.
For the variant U26C A28G C40U A47G, the self-cleavage worked out at 0.17.
Consider U25C A45G A65G, for which the self-cleavage turned out to be 0.14.
As to U25C U31G A45G U78A, the self-cleavage turned out to be 0.17.
U26A U60C A64U U69A: the self-cleavage came to 0.16.
Turning to U26A U51C A56G A65G U66C U78C, the self-cleavage is 0.08.
The result for U25G A47U C50U A65G U67C U72C U80C reads 0.06.
Turning to U25C U26C U76A, the self-cleavage worked out at 0.22.
Take U26A C37A U49C: the self-cleavage turned out to be 0.07.
On to U26A C50A U58C U78C, for which the self-cleavage worked out at 0.13.
Take U26A A57C A77G: the self-cleavage stood at 0.27.
With U25C G33A U60A U67C U80A, the self-cleavage was determined as 0.08.
Take U26A C29A G33A U80C: the self-cleavage amounted to 0.25.
The result for U25C U31C A47G U72C A75U reads 0.17.
Consider U26C A28U A56U U67A U72A U80C, for which the self-cleavage was 0.07.
For the variant U25C U26C U80A, the self-cleavage was 0.26.
For U25C U41A U60C G73U, the self-cleavage came out at 0.09.
For U25C U26C U43C A56U C59U A64U U80C, the self-cleavage amounted to 0.08.
The same measure for U25G U60C G63A: 0.16; for U26A U60A A65G: 0.2; for U25C U43C U76C: 0.16.
As to U25C U49A C59A U60C C62U U69A, the self-cleavage was 0.04.
The same measure for U26A C38A U72C: 0.44; for U26A C32U U41C U78C C79U: 0.08; for U25C U41C U49C U74C: 0.21.
U25C U54G A65G U69C U72C: the self-cleavage was 0.08.
Turning to U26A A35G C37G U43C A64G, the self-cleavage turned out to be 0.12.
Regarding U25C A35G U43C A56G U67C U80C, the self-cleavage was 0.15.
For the variant U26C A28U A35U, the self-cleavage was 0.12.
The same measure for U26A U67C U80A: 0.22.
The result for U25C U26C A28G A64G reads 0.14; that for U25G U41C U69C, 0.27.
U25C G33U U49G G52C U78C: the self-cleavage is 0.17.
Take U25C A77G C81A: the self-cleavage was 0.18.
As for U25C U41C A45G U76C A77G, the self-cleavage turned out to be 0.08.
The result for U25C A47G U54C C62U A64U reads 0.16; that for U26A U31A U72A, 0.15.
With U26C A35G C40A G42A U49A, the self-cleavage came to 0.29.
As to U25C A35U U49A, the self-cleavage was found to be 0.24.
On to U25C U67G U80A, for which the self-cleavage worked out at 0.37.
As for U26A A28G A35G C71U, the self-cleavage turned out to be 0.34.
The same measure for U25C U60C A64G U72A: 0.19.
With U26A A65U U80C, the self-cleavage stood at 0.52.
Turning to U25C A28U U31C A45C, the self-cleavage worked out at 0.19.
Turning to U25G A47G U51A A57U U72C, the self-cleavage came out at 0.08.
The result for U25C A47G U49C U60C A64G U80A reads 0.07; that for U26A C32A C39U U41C U78C, 0.07; that for U26A A35U U72C, 0.41.
On to U25C U31C G33U, for which the self-cleavage turned out to be 0.35.
The result for U25C G36U U48C reads 0.11.
With U26A C32A A35U C37A U54A U66C, the self-cleavage worked out at 0.07.
On to U26A A28G G33A U43A A56U A65G U80C, for which the self-cleavage turned out to be 0.08.
The same measure for U25C G36A U43A A64G: 0.13; for U25C U26C A35U: 0.25; for U26A A28G G30C U69C: 0.12.
In the case of U25C U41A U67C, the self-cleavage was determined as 0.12.
U25C U51C G70A: the self-cleavage stood at 0.47.
